These results are taken from publication PMC4430315.

Amino acid sequences for entries named in this document (tags omitted).
UniProt Q13620: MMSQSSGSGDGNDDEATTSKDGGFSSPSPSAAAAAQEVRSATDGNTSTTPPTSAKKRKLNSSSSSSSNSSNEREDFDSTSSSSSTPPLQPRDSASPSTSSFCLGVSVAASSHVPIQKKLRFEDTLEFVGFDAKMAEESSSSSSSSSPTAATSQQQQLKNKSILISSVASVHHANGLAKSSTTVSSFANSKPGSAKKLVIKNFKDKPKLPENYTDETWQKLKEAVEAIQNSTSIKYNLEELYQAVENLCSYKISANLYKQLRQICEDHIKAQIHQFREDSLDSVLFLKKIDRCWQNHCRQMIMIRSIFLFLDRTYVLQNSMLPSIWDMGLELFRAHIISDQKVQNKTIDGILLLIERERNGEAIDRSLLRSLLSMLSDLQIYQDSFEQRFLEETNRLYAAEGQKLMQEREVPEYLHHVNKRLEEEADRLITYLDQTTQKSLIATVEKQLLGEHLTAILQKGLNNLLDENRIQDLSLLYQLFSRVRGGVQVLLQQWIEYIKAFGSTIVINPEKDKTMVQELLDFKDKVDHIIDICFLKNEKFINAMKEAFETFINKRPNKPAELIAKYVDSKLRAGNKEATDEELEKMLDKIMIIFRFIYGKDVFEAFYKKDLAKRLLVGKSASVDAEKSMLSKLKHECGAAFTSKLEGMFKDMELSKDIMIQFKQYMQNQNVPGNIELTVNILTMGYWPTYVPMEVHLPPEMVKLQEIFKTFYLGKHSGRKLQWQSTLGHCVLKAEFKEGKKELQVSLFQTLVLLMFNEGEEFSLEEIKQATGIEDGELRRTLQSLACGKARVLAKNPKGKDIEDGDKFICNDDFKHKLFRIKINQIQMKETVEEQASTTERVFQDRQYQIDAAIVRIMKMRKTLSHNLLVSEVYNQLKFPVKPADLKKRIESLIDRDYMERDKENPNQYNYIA
UniProt Q16531: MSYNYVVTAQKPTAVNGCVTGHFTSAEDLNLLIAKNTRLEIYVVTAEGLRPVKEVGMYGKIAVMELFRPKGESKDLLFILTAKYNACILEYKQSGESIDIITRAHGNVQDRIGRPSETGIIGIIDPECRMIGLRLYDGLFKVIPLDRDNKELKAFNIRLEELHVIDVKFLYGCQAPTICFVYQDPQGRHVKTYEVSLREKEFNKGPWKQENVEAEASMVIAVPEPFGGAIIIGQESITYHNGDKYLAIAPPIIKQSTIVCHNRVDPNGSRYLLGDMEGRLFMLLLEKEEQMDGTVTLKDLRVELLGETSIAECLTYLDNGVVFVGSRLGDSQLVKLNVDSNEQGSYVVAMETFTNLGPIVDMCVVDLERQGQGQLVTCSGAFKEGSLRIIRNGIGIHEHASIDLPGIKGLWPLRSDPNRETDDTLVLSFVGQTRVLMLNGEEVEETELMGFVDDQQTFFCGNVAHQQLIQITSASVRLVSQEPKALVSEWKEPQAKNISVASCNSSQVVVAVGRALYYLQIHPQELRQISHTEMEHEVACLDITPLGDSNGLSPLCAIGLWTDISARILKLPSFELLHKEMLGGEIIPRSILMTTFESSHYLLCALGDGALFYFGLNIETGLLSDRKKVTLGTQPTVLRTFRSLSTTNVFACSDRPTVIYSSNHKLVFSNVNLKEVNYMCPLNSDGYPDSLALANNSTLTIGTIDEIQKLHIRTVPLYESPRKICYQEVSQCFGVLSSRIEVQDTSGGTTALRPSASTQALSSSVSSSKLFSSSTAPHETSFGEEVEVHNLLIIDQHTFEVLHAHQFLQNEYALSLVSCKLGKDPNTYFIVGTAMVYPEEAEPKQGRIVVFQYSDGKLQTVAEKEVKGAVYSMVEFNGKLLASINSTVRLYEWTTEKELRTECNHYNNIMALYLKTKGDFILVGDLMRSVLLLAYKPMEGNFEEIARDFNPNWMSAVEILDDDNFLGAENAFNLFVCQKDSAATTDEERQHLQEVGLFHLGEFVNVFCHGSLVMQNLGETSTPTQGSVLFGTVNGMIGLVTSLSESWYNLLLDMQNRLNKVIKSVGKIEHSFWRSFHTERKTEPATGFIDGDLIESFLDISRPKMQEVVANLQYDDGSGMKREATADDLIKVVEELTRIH
UniProt Q13619: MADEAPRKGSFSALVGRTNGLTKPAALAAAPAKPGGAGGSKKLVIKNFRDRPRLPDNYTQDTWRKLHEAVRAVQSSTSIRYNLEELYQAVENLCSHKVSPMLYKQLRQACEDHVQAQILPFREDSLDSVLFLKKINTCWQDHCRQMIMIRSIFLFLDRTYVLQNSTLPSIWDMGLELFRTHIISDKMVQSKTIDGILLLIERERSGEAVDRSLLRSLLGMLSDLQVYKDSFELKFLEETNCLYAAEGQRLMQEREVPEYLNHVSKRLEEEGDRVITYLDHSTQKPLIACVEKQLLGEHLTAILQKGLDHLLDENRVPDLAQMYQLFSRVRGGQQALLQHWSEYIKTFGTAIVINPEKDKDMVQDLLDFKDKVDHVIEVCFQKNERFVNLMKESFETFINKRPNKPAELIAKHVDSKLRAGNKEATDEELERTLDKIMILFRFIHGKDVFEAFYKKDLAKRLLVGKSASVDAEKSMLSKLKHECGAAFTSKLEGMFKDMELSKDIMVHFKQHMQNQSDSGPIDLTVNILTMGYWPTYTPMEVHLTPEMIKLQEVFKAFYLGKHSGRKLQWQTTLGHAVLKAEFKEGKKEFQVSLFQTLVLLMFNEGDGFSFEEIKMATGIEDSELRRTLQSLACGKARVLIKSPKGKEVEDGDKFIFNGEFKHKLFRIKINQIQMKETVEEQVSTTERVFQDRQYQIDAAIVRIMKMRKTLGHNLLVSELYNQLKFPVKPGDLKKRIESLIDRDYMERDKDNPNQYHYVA

Test [1] concerns the target T1, FLAG-FBXO44 (F-box protein 44, full length) (UniProt Q9H4M3).
T1 sequence: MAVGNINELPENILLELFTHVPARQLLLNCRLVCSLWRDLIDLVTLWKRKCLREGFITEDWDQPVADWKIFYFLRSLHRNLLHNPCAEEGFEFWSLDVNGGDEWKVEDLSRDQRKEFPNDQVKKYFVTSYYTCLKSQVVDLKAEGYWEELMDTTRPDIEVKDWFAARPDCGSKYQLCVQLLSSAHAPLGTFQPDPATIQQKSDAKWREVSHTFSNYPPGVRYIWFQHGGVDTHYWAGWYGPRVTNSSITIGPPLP
The experiment in a line: co-IP; lysates of transiently transfected HEK-293 cells (HEK-293T in Fig 4A); 1 mg lysate, 1 μg antibody and Protein G-agarose, 2 h at 4°C; lysis buffer 20 mM Tris-HCl pH 7.4, 150 mM NaCl, 2 mM EDTA, 5% glycerol, 1% Triton-X100; Western blot. For orientation: A western blot detects proteins with antibodies after separation by electrophoresis.

For test [2], the target named is T2, RGS2-HA (Regulator of G Protein Signaling 2, HA-tagged) (UniProt P41220).
T2 sequence: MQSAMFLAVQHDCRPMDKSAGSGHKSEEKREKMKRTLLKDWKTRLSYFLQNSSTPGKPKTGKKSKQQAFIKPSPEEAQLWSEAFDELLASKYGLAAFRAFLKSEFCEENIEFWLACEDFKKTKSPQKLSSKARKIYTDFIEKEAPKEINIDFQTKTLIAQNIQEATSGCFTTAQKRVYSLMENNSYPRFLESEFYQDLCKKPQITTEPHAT
The description is as above.

The target of test [3] is T1, FLAG-FBXO44 (F-box protein 44, full length). The description is as above. This is another data set of the same source.
Test [4] concerns the target T3, FBXO44, endogenous in mouse heart (mouse (endogenous in heart tissue)) (UniProt Q8BK26).
T3 sequence: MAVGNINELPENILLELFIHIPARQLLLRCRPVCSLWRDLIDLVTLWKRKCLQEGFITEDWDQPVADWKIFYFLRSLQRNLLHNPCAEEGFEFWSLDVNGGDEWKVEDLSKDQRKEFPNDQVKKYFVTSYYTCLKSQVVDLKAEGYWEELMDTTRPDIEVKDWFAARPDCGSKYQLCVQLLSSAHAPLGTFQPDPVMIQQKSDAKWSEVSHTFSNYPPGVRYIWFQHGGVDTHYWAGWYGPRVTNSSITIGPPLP
Kind of test: co-IP; endogenous proteins from C57/Bl6 mouse whole heart tissue lysate; Protein G-agarose, 2 h at 4°C; Protein A-HRP used for detection of endogenous FBXO44.

Test [5] addresses T2, RGS2-HA (Regulator of G Protein Signaling 2, HA-tagged). Kind of test: co-IP; lysates of transiently transfected HEK-293 cells (HEK-293T in Fig 4A); 1 mg lysate, 1 μg antibody and Protein G-agarose, 2 h at 4°C; lysis buffer 20 mM Tris-HCl pH 7.4, 150 mM NaCl, 2 mM EDTA, 5% glycerol, 1% Triton-X100; Western blot. This is another data set of the same source.

Like-named read-outs stand apart in the source and are kept apart here. These are yes or no findings as the source states them, for the method shown. Binding seen in cells or lysates may run through a third protein. Some entries that bind do so weakly or less than the wild type. For some assays here: Where a sequence is shown, tags or fusion partners need not be part of it.

Consider “cullin 4B (CUL4B), endogenous (from UniProt Q13620 1-913)”, for which the binding entry in test [1] is given as “binds”.
“DNA damage binding protein 1 (DDB1) (from UniProt Q16531 1-1140)”: the binding result in test [2] and in test [1] was “binds” in each case.
On to “cullin 4A (CUL4A), endogenous (from UniProt Q13619 1-759) (other; other documents disagree on this pair)”, for which the binding result in test [1] was “no binding”.
With Skp1 (from UniProt P63208 1-163), in test [2], the binding entry is recorded as “no binding”.

B1: RGS2-HA (Regulator of G Protein Signaling 2, HA-tagged) (protein, UniProt P41220 1-211)
chain: MQSAMFLAVQHDCRPMDKSAGSGHKSEEKREKMKRTLLKDWKTRLSYFLQNSSTPGKPKTGKKSKQQAFIKPSPEEAQLWSEAFDELLASKYGLAAFRAFLKSEFCEENIEFWLACEDFKKTKSPQKLSSKARKIYTDFIEKEAPKEINIDFQTKTLIAQNIQEATSGCFTTAQKRVYSLMENNSYPRFLESEFYQDLCKKPQITTEPHAT
As to B1, the binding result in test [3] is listed as “binds”.

B2: RGS2, endogenous in mouse heart (protein, UniProt O08849 1-211)
chain: MQSAMFLAVQHDCVPMDKSAGNGPKVEEKREKMKRTLLKDWKTRLSYFLQNSSAPGKPKTGKKSKQQTFIKPSPEEAQLWAEAFDELLASKYGLAAFRAFLKSEFCEENIEFWLACEDFKKTKSPQKLSSKARKIYTDFIEKEAPKEINIDFQTKSLIAQNIQEATSGCFTTAQKRVYSLMENNSYPRFLESEFYQDLCKKPQITTEPHAT
On to B2, for which, in test [4], the binding entry was “binds”.

B3: FLAG-FBXO44 (F-box protein 44, full length) (protein, UniProt Q9H4M3 1-255)
chain: MAVGNINELPENILLELFTHVPARQLLLNCRLVCSLWRDLIDLVTLWKRKCLREGFITEDWDQPVADWKIFYFLRSLHRNLLHNPCAEEGFEFWSLDVNGGDEWKVEDLSRDQRKEFPNDQVKKYFVTSYYTCLKSQVVDLKAEGYWEELMDTTRPDIEVKDWFAARPDCGSKYQLCVQLLSSAHAPLGTFQPDPATIQQKSDAKWREVSHTFSNYPPGVRYIWFQHGGVDTHYWAGWYGPRVTNSSITIGPPLP
On to B3, for which the binding entry in test [5] was “binds”.
